# From US20090241221A1, “TANDEM REAPEAT DNA CONSTRUCTS PRODUCING PROTEINS THAT ATTACK PLANT PATHOGENIC VIRUSES, FUNGI, AND BACTERIA BY DISRUPTING TRANSCRIPTION FACTORS ESSENTIAL FOR REPLICATION THEREOF IN PLANTS” (priority 2008, published 2009)
# Test system: pathogenic fungus present in the test tube water
# Assay: Resistance of Portulaca to pathogenic fungus in the test tube water
# Settings: treatment for 10 days
compound,measurement,value
"O=C(O)c1ccccn1 [picolinic acid, 2-pyridine carboxylic acid]",fungal toxin disease resistance,fungal toxin disease resistant
